Screen size: about 310,000 compounds; about 2,200 (0.71%) showed an effect of 50% or more. The effect is printed as a negative number. Some of the results follow.
Target: human ether-à-go-go-related gene (hERG) potassium channel (human, UniProt Q12809)
Assay: primary screen, population patch clamp on CHO cells stably expressing hERG

Sequence of human ether-à-go-go-related gene (hERG) potassium channel (Q12809 whole entry, looked up): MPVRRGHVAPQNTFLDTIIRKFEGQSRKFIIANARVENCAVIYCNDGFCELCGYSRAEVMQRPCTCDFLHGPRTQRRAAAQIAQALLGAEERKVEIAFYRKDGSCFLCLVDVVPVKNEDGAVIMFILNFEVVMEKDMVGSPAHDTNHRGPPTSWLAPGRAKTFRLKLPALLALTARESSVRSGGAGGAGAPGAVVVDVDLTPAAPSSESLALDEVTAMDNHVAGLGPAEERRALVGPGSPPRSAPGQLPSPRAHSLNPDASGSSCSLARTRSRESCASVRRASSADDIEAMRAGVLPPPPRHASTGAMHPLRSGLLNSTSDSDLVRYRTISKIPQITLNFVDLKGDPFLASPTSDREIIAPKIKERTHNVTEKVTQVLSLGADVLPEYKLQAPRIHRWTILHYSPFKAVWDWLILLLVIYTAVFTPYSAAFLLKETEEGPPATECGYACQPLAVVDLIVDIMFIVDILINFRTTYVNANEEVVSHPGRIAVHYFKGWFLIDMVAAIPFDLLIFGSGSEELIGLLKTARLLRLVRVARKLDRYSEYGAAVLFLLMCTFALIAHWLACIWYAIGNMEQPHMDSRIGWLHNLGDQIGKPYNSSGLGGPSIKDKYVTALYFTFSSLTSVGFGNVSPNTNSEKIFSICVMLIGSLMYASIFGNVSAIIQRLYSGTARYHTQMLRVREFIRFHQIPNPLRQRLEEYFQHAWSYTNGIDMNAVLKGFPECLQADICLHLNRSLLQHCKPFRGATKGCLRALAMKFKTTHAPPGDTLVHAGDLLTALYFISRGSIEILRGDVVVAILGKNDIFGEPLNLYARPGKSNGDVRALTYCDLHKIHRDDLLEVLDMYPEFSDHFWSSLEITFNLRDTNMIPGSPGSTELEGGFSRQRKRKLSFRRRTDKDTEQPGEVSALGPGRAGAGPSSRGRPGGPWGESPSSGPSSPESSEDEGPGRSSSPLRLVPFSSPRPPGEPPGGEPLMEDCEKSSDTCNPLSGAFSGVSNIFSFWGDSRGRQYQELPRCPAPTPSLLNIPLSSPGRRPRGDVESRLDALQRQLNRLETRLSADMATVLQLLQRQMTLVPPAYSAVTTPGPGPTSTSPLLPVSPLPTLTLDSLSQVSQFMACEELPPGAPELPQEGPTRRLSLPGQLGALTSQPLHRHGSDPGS

Structure (SMILES)	hERG current change (%, negative = inhibition) at 1uM [%]
COc1cc(/C=C(/C#N)c2nc3ccccc3[nH]2)ccc1OC(=O)c1ccco1	7.41
O=C(COc1ccc(-c2nnco2)cc1)NCc1ccccc1Cl	1.47
CC(C)C[C@H](NC(=O)C1CC(=O)N(c2ccc3c(c2)OCO3)C1)C(=O)NCc1ccco1 (stereo partly drawn)	5.04
O=C(NCc1ccccn1)c1ccc(COc2ccc(Cl)cc2)o1	2.53
CC(=O)OCc1cc2cc(C)ccc2[nH]c1=O	12.9
Cc1cccc(C)c1OCC(=O)NNC(=S)NC(=O)C1CC1	7.77
Cc1cc(Cl)ccc1OC(C)C(=O)N1CCCN(C(=O)C(C)Oc2ccc(Cl)cc2C)CC1 (stereo not drawn)	12.1
Cc1nc(C)c(Oc2ccc(Cl)cc2Cl)c(=O)[nH]1	10.7
O=C(C1CCCCC1)N1CCN(S(=O)(=O)c2ccc(Br)cc2)CC1	7.29
Cc1cc(CNC(=O)C2(C(F)(F)F)C/C(=C\CCO)CCCO2)nn1C (stereo not drawn)	10.6
CCCNc1nc(C)cc(-c2cc(-c3ccccc3)on2)n1	13
COc1ccc(CC2(CO)CCN(Cc3ccc(NC(C)=O)cc3)CC2)cc1	-6.86
COc1ccc(C(=O)N2CCCCC2)cc1S(=O)(=O)Nc1ccccc1	6.97
Cc1ccc(C(=O)NNC(=O)CCC(=O)NCc2ccccc2)cc1Br	10.3
CC(=O)N(CN1C(=O)c2ccccc2C1=O)c1ccc2c(c1)oc1ccccc12	9.19
CSCC[C@H](NC(=O)Nc1ccccc1C)C(=O)O	5.67
COc1cc(SC#N)ccc1N=Cc1c(C)[nH]n(-c2ccc(Cl)cc2)c1=O	-1.2
CCCCn1c(=O)c(C(=O)NCc2ccccc2OC)c(O)c2ccccc21	4.46
O=P(OC1CCCCC1)(OC1CCCCC1)C(Nc1ccccc1)c1cccnc1 (stereo not drawn)	5.86
O=C(CCCOc1ccccc1)NCc1ccco1	-14.4
CCOC(=O)C1(CCOC)CCN(C2C3CC4CC(C3)CC2C4)CC1 (stereo not drawn)	8.54
CCCn1nnnc1NCc1ccc(CC)cc1	13.7

Structure (SMILES)	hERG current change (%, negative = inhibition) at 1uM [%]
CCOc1ccc(C2=Nc3ccc(Br)cc3C(c3ccc(N4CCOCC4)cc3)=NN2)cc1	16.2
CCOc1ccc(Nc2cc(C)c3ccccc3n2)cc1	13.2
CC(=O)c1nn(-c2cccc(Br)c2)cc1C(=O)c1ccc2ccccc2c1	9.62
COc1cc2c(cc1OC)C(C(=O)NC1CC1)C1c3ccccc3CCN1C2=O (stereo not drawn)	3.84
O=C(CCc1nnc(CCCCc2ccccc2)o1)NCCn1cccn1	4.99
Cc1oc2cc3oc(=O)c(CCC(=O)N[C@H](C(=O)O)C(C)C)c(C)c3cc2c1C	11.7
Cc1nc(SCC(=O)Nc2c(C)n(C)n(-c3ccccc3)c2=O)c(C#N)c(C)c1C	-12.9
COc1ccc(C2CC(c3ccccc3)=NN2C(=O)COC(=O)c2cccc(S(=O)(=O)N3CCOCC3)c2)cc1 (stereo not drawn)	14.9
Cc1ccccc1CN1CCN(Cc2ccccc2C(F)(F)F)CC1.O=C(O)C(=O)O	1.7
CCc1[nH]c(=O)c(C#N)c2c1COC(C)(C)C2	-0.316
OCCNc1nc(-c2ccccc2)c2ccccc2n1	-1.18
N#CCC(CNc1ncc(C(F)(F)F)cc1Cl)OC(=O)c1cccc(C(F)(F)F)c1 (stereo not drawn)	-1.12
Cc1nc(N2CCN(c3ccccn3)CC2)c2c(C)c(C(=O)Nc3ccc(F)cc3)sc2n1	-21
COC(=O)Nc1nc2c(C)cccc2s1	-4.56
NC(=O)c1cc(S(=O)(=O)Nc2cccc(Cl)c2)cs1	14.6
Nc1cccc(S(=O)(=O)c2cccc(N)c2)c1	0.326
Cc1ccc(CNC2=NCCCCC2)n1C	5.96
Nc1cc(C(F)(F)F)ccc1Nc1ccccc1	14
O=C1NC(c2ccc(-c3ccccc3[N+](=O)[O-])o2)C(C(=O)c2ccc(Cl)cc2)C(O)(C(F)(F)F)N1 (stereo not drawn)	13.6
COc1ccc(/C=C/C(=O)OCC(=O)N2CCCC2)c(OC)c1	15.8
COc1ccc(OC(=O)COc2cc(C)ccc2C)cc1	8.15
Cn1c2c(c(=O)n(C)c1=O)C1c3ccccc3OCC1C(C)(C)O2 (stereo not drawn)	3.14

Structure (SMILES)	hERG current change (%, negative = inhibition) at 1uM [%]
O=C(c1ccc(Cn2cc(Br)cn2)o1)N1N=C(C(F)F)CC1(O)C(F)F (stereo not drawn)	4.16
N#C/C(=C\c1c(N2CCCCC2)nc2ccccn2c1=O)S(=O)(=O)c1ccccc1	6.11
CN(C)C(CNS(=O)(=O)c1ccc2ccccc2c1)c1ccccc1.Cl (stereo not drawn)	9.14
CC(=O)c1ccc(Oc2ncnc(N)c2[N+](=O)[O-])cc1	14.7
CCOC(=O)c1c(C)nc(C)c(C(=O)OCC)c1-c1cccc(N)c1	9.85
CC(=O)c1cccc(OCc2cc(C(=O)N3C[C@H]4CC[C@H]3C4)no2)c1	14.5
O=C(Cn1cc([N+](=O)[O-])cn1)N1CCc2ccccc2C1	9.59
COc1cc(C(=O)Nc2nc3ccc(S(=O)(=O)N4CCOCC4)cc3s2)cc(OC)c1OC	13.5
C=CCSc1nnnn1-c1ccc(OC)cc1	-5.94
Cc1cn(-c2cc(NC(=O)c3ccc(C)c(NC(=O)c4cccc(-c5cn[nH]c(=O)c5)c4)c3)cc(C(F)(F)F)c2)cn1.O=C(O)C(F)(F)F	13.2
CSc1nc(-c2ccco2)nn1S(=O)(=O)c1ccccc1	10.4
COc1ccc(COc2ccccc2C(N)=O)cc1F	6.23
O=C(COC(=O)c1cccnc1)Nc1ccc(F)cc1	3.47
CCOc1ccccc1OCCn1nc2ccccc2n1	11.8
O=C(O)C1=CC[C@@H](c2ccc(Cl)cc2)N(S(=O)(=O)c2ccc(Cl)cc2)C1	17.8
COc1cccc(N2CC(O)Cn3c2nc2c3c(=O)[nH]c(=O)n2C)c1 (stereo not drawn)	7.58
CCC(=O)c1ccc(OCC(=O)NCC2(N3CCCCC3)CCCCC2)cc1	-12.3
COc1cc2c(cc1NC(=O)COC(=O)[C@@H](NC(=O)c1ccccc1)C(C)C)oc1ccccc12	8.52
Cc1ccc(F)c([C@H]2[C@H]3C=CC[C@@H](C)[C@@H]3C(=O)N2Cc2ccccc2)c1	6.98
CCCCn1c(-c2nn(C)cc2Cl)n[nH]c1=S	9.29
O=C1CCC(Cc2ccccc2)N1 (stereo not drawn)	7.81
CSC(SC)=C(C#N)C(=O)c1ccccc1	12.3

Structure (SMILES)	hERG current change (%, negative = inhibition) at 1uM [%]
Cc1oc2ccc(NS(=O)(=O)c3cccc4cccnc34)cc2c1C(=O)OC(C)C	10.8
CC(=O)c1ccc(N2CCN(C(=O)c3c(-c4ccccc4Cl)noc3C)CC2)cc1	-4.28
O=C(O)C(=O)O.O=C(c1cccc(Cl)c1)N1CCN(Cc2c[nH]c3ccccc23)CC1	-0.13
O=C(NCC1CCCO1)c1ccc2nc(N3CCCCC3)sc2c1 (stereo not drawn)	-3.12
CCCCC(NC(=O)Cc1c(C)c2cc3c(-c4ccccc4)coc3c(C)c2oc1=O)C(=O)O (stereo not drawn)	12.1
CN1CCC(OC(=O)c2ccccc2)CC1.Cl	10.9
CN(Cc1ccccc1)c1ncnc2ccc(Br)cc12	-0.465
O=C(NC(=S)Nc1ccccc1O)c1ccccc1Cl	5.01
COC(=O)C1=C(N)Oc2cc(C)n(CCCn3ccnc3)c(=O)c2C1c1ccc(Cl)cc1 (stereo not drawn)	-19.9
CCN1C(=O)[C@@H]2[C@@H](c3ccc(-c4ccc(F)cc4)cc3)N3CCC[C@@]3(C(=O)OC)[C@@H]2C1=O.O=C(O)C(F)(F)F	-4.41
CC(C)Oc1cccc(C(=O)C2CCCN(S(=O)(=O)C(C)C)C2)c1 (stereo not drawn)	1.11
COc1cc(N2C(=O)c3ccccc3C2=O)c(Cl)cc1C(=O)OCC(=O)NCc1ccco1	-5
COc1cc2c(cc1OC)C1(CCCC1)CNC2C.Cl (stereo not drawn)	6.52
COCCNC(=O)c1cc2ncc(Br)cn2n1	2.63
NC(=O)c1nnn(-c2cccc(C(F)(F)F)c2)c1-c1ccccc1	8.21
O=C(CCc1nc(-c2ccccc2Cl)no1)Nc1cccnc1	11
CCOC(=O)c1cc(CC)sc1NC(=O)CN1CCN(C(=O)C2CCCO2)CC1 (stereo not drawn)	-31.9
O=C(Cn1ccc2ccccc2c1=O)NCCC(=O)N1CCN(c2cccc(Cl)c2)CC1	8.43
CCCCn1c(SCC(=O)N2c3ccccc3CCc3ccccc32)nc2c1c(=O)n(C)c(=O)n2C	5.33
CC(C)(C)C1CCc2c(sc3c2C(=O)NC(c2ccco2)N3)C1 (stereo not drawn)	4.81
CCCCCCC(=O)Nc1ccc(Br)cn1	7.53
